Experimental data reported in PubChem BioAssay AID2202238 (Ras Initiative Chemistry Research Team, Frederick National …, 2025).
The list shows a part of the results. The main result of the screen is listed elsewhere. These columns were measured beside it and carry no call.

Target: GTPase KRas (Homo sapiens) (UniProt P01116)
Assay: Cysteine mutants labelled by reactive fragments (mass read-out) (AID 2202238)
Design: protein at 5 µM with 500 µM competing thiol for 1.5 h
Details: KRAS G12D cysteine mutants, disulfide tethering, MALDI-TOF labeling, stronger effect = higher value, fragment at 500 µM
[1] = measured here: G75C mutant labeling
[2] = measured here: H94C mutant labeling
[3] = measured here: I36C mutant labeling
[4] = measured here: L120C mutant labeling
[5] = measured here: M67C mutant labeling
[6] = measured here: M72C mutant labeling
[7] = measured here: N86C mutant labeling
[8] = measured here: P121C mutant labeling
[9] = measured here: S122C mutant labeling
[10] = measured here: S136C mutant labeling
[11] = measured here: G60C mutant labeling
[12] = measured here: N26C mutant labeling

Chain of UniProt P01116 (P01116 whole entry, looked up, the tested form may be a part): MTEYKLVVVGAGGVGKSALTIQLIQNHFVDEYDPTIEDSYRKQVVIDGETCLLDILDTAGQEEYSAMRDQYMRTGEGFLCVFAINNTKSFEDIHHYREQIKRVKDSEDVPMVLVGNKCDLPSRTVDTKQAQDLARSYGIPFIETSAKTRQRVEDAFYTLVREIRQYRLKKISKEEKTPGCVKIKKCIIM

SMILES | percent labeling [1] [%] | percent labeling [2] [%] | percent labeling [3] [%] | percent labeling [4] [%] | percent labeling [5] [%] | percent labeling [6] [%] | percent labeling [7] [%] | percent labeling [8] [%] | percent labeling [9] [%] | percent labeling [10] [%] | percent labeling [11] [%] | percent labeling [12] [%]
Cn1cc(C(=O)NC2CCN(C(=O)CCS)CC2)cn1 | 11.3 | 32.7 | 41.8 | 33.2 | 37.7 | 23.6 | 27.9 | 37 | 37.2 | 46.8 | – | –
CCN(CC)C(=O)N1CCC(C(=O)NCCS)CC1 | 10 | 34.1 | 23.8 | 35.6 | 32.3 | 16.4 | 28 | 34.1 | 35.6 | 48.6 | 24.9 | 35.2
CCn1c(=O)[nH]c(=O)c2c(C(=O)NCCS)cc(C3CC3)nc21 | 4.3 | 9.8 | 15 | 12.7 | 13.1 | 33.4 | 15.5 | 8.3 | 7.9 | 59 | 23.6 | 29.7
CN(C(=O)CCS)C1CS(=O)(=O)C1(C)C (stereo not given) | 11.2 | 30.1 | 38.6 | 19.2 | 29.3 | 20.6 | 27 | 29.1 | 32.8 | 51.7 | – | –
O=C(CCS)Nc1ccc(S(=O)(=O)CC2CCOC2)cc1 (stereo not given) | 26.2 | 30 | 42.9 | 22.3 | 33.5 | 37.1 | 23.8 | 22 | 28.4 | 37.1 | – | –
NC(=O)NC1CCC(NC(=O)CCS)CC1 (stereo not given) | 13.9 | 32.7 | 32.8 | 26.4 | 31.3 | 18.9 | 29.6 | 33.3 | 35.7 | 52.2 | – | –
O=C(CCS)Nc1cccc(-c2n[nH]c3c2CCC3)c1 | 23.3 | 28.2 | 34.5 | 26.5 | 28.5 | 70.1 | 31.5 | 20.6 | 14.1 | 38.8 | – | –
O=C(NCCS)c1cccc2[nH]c(C(F)F)nc12 | 43.6 | 27.8 | 15.3 | 26.7 | 21.4 | 79.5 | 13.8 | 14.2 | 14.5 | 32.9 | 26 | 30
O=C(NCCS)C1CCCCC1c1nc2ccccc2[nH]1 (stereo not given) | 21.7 | 33.2 | 30.1 | 30.7 | 39.2 | 29.1 | 29.9 | 23 | 24.4 | 35.3 | 44.5 | 38.9
Cc1c(C(=O)NCCS)cccc1N1CCNC1=O | 12.4 | 39.5 | 30.3 | 36.3 | 36.9 | 20 | 28.8 | 38.5 | 31.3 | 50.5 | 28.6 | 31.7
O=C(CCS)NCC1(O)CC2CCC(C2)C1 (stereo not given) | 11.9 | 31.8 | 25.5 | 35.1 | 35.5 | 34.9 | 27.3 | 39.2 | 39 | 51.7 | – | –
O=C(NCCS)c1cc2c(OC(F)F)cccc2[nH]1 | 10.3 | 22.3 | 17.5 | 20.3 | 11.9 | 54.4 | 14.4 | 16.9 | 13.4 | 27 | 34 | 20.8
O=C(CCS)NC1CC(O)(C2(O)CCC2)C1 (stereo not given) | 0 | 27 | 35.6 | 24.8 | 26.5 | 12 | 12.2 | 34.5 | 32.6 | 42.7 | – | –
Cc1oc2[nH]c(=O)n(-c3ccccc3)c(=O)c2c1C(=O)NCCS | 9.7 | 25.2 | 7.5 | 22 | 18.9 | 14.3 | 10 | 14.4 | 24.3 | 20.8 | 20.6 | 15.4
O=C(CCc1c(-c2ccccc2)[nH]c2ccc(F)cc12)NCCS | 15.5 | 19.1 | 13 | 16.2 | 16.5 | 46.6 | 6.1 | 17 | 4.7 | 33.2 | 44.2 | 16.9
CNC(=O)c1cccc(NC(=O)CCS)c1C | 9.5 | 26.1 | 27.4 | 28 | 26.6 | 16 | 23.3 | 28.8 | 31.8 | 43.8 | – | –
O=C(Cc1coc2cc(Cl)ccc12)NCCS | 19.5 | 20.1 | 12.4 | 30 | 13.6 | 52.2 | 14 | 17.9 | 10.8 | 19.6 | 42.2 | 34.5
Cn1c(C(F)(F)F)nc2cncc(C(=O)NCCS)c21 | 16.3 | 32.6 | 28.9 | 30.1 | 34.2 | 33.4 | 24.5 | 33.4 | 29.6 | 42.2 | 40.4 | 41.5
O=C(CCS)N1CCCN(c2ccc(C(F)(F)F)cn2)CC1 | 22.6 | 57.4 | 35.5 | 25.3 | 54.1 | 44.8 | 31 | 29.5 | 26.8 | 54.6 | – | –
Cc1nc2cc(NC(=O)CCS)ccc2n1C | 11.8 | 26.2 | 26.6 | 26.6 | 29.3 | 27.8 | 26.2 | 23.1 | 36.4 | 42.1 | – | –
CC(C)N1Cc2cccc(NC(=O)CCS)c2C1 | 16.9 | 34.8 | 39.1 | 23.7 | 41.3 | 25.1 | 18.3 | 27.4 | 29.8 | 49.3 | – | –
O=C(CCS)Nc1ccc(F)cc1OCC(F)F | 13.5 | 41.2 | 33.2 | 32.3 | 34.7 | 26.1 | 24.8 | 29 | 28.5 | 52.3 | – | –
CCOc1cc(NC2CCN(C(=O)CCS)CC2)ncn1 | 14.9 | 32.9 | 41.8 | 32.8 | 43.3 | 25.2 | 16.5 | 34 | 27.5 | 49.3 | – | –
O=C(CCS)NCCOc1cn[nH]c1C(F)(F)F | 15 | 41.1 | 42.7 | 35.1 | 53.4 | 43.7 | 45.6 | 36.5 | 39.2 | 56.2 | – | –
Cn1cc(NC(=O)CCS)c(=O)n(C)c1=O | 15.7 | 33.8 | 40.7 | 29 | 34.5 | 28.3 | 22.3 | 36.8 | 32.2 | 43.9 | – | –
Cc1c(C)c2c(c(C)c1O)CCC(C)(C(=O)NCCS)O2 (stereo not given) | 19.7 | 21.4 | 14.2 | 14.7 | 21.4 | 27.2 | 6.3 | 14.9 | 12.7 | 24.2 | 34.7 | 26.8
O=C(NCCS)c1cc2c(Cl)cccn2n1 | 22.7 | 22.2 | 13.6 | 22.6 | 18.8 | 53 | 9.8 | 20.1 | 12.9 | 33 | 35.8 | 31.9
Cc1ccc(C)c(-n2cnc3cc(C(=O)NCCS)ccc32)c1 | 9.8 | 13.8 | 6.9 | 11.7 | 10.6 | 39 | 11.6 | 12.1 | 6.7 | 11.7 | 39.8 | 28.2
Cc1nn(C)c(C)c1CC(C)C(=O)NCCS (stereo not given) | 10.3 | 28 | 25.6 | 19.6 | 23.9 | 11.9 | 19.4 | 32.8 | 26.5 | 38.2 | 29.3 | 26.4
O=C(NCCS)c1cc(-c2ccccc2)nc2cc(Br)ccc12 | 14.9 | 8.2 | 6.9 | 4.9 | 4 | 54.2 | 0 | 9.7 | 2.3 | 18.1 | 35 | 23.6
